This note sets out measurements from US20250297030A1 (SHANDONG SIMCERE BIOPHARMACEUTICAL, published 2025).

B1: SCR-7784-001-H1-hFc (Fc fusion)
chain: EVQLVESGGGVVQPGGSLRLSCAASGYTSNRYSMAWFRQAPGKEREVVAFIWTDGGRTYYADSVKGRFTISRDNSKNTLYLQMNSLRAEDTAVYYCAASSLLLQTINPRAWPYWGQGTMVTVSS[omitted - human IgG1 Fc with C220S (EU numbers)]
notes: VHH-huFc (C220S) order with human hinge and Fc; also called SCR-7784 humanized antibody
B2: SCR-7784-001-H5-hFc (Fc fusion)
chain: B1 chain with E1D, F68L, R72H, S75A
notes: as for B1
B3: SCR-7784-001-H7-hFc (Fc fusion)
chain: B1 chain with E1D, R72H, V93M, M119Q
notes: as for B1
B4: SCR-7784-001-H3-hFc (Fc fusion)
chain: B1 chain with E1D, R72H
notes: as for B1
B5: SCR-7784-001-H6-hFc (Fc fusion)
chain: B1 chain with E1D, V5Q, E6A, R72H
notes: as for B1
B6: SCR-7784-001-H4-hFc (Fc fusion)
chain: B1 chain with E1D, R72H, S75A
notes: as for B1
B7: SCR-7784-001-H2-hFc (Fc fusion)
chain: B1 chain with R72H
notes: as for B1
B8: SCR-7782-001-H3-hFc (Fc fusion)
chain: EVQLVESGGGLVQPGGSLRLSCAASGNTFSRGSMSWFRQAPGKEREGVAIISSDGWTGYADSVKGRFTISQDNAKNSLYLQMNSLRAEDTAVYYCAASFLVLRALNPKAWHYWGQGTMVTVSS[omitted - human IgG1 Fc with C220S (EU numbers)]
notes: VHH-huFc (C220S) order with human hinge and Fc; also called SCR-7782 humanized antibody
B9: SCR-7782-001-H6-hFc (Fc fusion)
chain: B8 chain with E1D, G26D, V92M, M118Q
notes: as for B8
B10: SCR-7782-001-H4-hFc (Fc fusion)
chain: B8 chain with E1D, G26D
notes: as for B8
B11: SCR-7782-001-H5-hFc (Fc fusion)
chain: B8 chain with E1D, V5Q, E6A, G26D
notes: as for B8
B12: SCR-7785-001-H1-hFc (Fc fusion)
chain: EVQLVESGGGVVQPGGSLRLSCAASGFTFSRGSWGWFRQAPGKEREAVALISSDGWTFYADSVKGRFTISRDNSKNTLYLQMNSLRAEDTAVYYCAASVLVLRTLNPKAWHHWGQGTMVTVSS[omitted - human IgG1 Fc with C220S (EU numbers)]
notes: VHH-huFc (C220S) order with human hinge and Fc; also called SCR-7785 humanized antibody
B13: SCR-7783-001-H1-hFc (Fc fusion)
chain: EVQLVESGGGLVQPGGSLRLSCAASGFTFSRGTMAWFRQAPGKEREGVAFINSDGRTSYAESVKGRFTISRDNAKNSLYLQMNSLRAEDTAVYYCAASLLYLMTVNAAAYPYWGQGTMVTVSS[omitted - human IgG1 Fc with C220S (EU numbers)]
notes: VHH-huFc (C220S) order with human hinge and Fc; also called SCR-7783 humanized antibody
B14: SCR-7783-001-H3-hFc (Fc fusion)
chain: B13 chain with E1D, T28P, F29S
notes: as for B13
B15: SCR-7783-001-H2-hFc (Fc fusion)
chain: B13 chain with T28P, F29S
notes: as for B13

Residue numbers refer to the chain shown, from its start. Numbers in names are those of the source.

For one assay, the target named is T1, Human MUC17 ECD4131-his (His-tagged human MUC17 protein extracellular domain fusion protein) (human, UniProt Q685J3 partial chain).
T1 construct: a truncation of the extracellular domain; also called human MUC17-his protein; human MUC17-His
T1 sequence (Q685J3 other isoform, or with tags, fused parts or gaps): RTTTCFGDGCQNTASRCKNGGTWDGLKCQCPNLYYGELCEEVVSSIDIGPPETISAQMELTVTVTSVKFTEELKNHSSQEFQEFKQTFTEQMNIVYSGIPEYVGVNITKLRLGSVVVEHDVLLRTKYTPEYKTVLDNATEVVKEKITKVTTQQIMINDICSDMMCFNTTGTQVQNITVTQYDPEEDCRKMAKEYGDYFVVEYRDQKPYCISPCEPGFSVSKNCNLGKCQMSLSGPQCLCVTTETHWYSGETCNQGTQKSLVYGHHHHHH
Kind of assay: ELISA on coated human MUC17 ECD4131-his, OD450. As to the method: A human MUC17-his protein was diluted with PBS to a final concentration of […] and then added to a 96-well ELISA plate at 50 µL/well. The plate was incubated at 4° C. overnight. The next day, the plate was washed 2 times with PBST, and a blocking buffer [PBS+2% (w/w) BSA] was added for blocking at room temperature for 2 h. The blocking buffer was discarded, and the recombinant antibody and positive and negative control antibody with a starting concentration of 100 nM serially diluted by 3 folds were added at 50 μL/well. After incubation at 37° C. for 1 h, the plate was washed 3 times with PBST. A horseradish peroxidase (HRP)-labeled secondary antibody (purchased from Merck, Cat. No. AP113P) was added for incubation at 37° C. for 1 h, and the plate was washed 5 times with PBST. A TMB substrate was added at 50 μL/well for incubation at room temperature for 10 min, and then a stop solution (1.0 M HCl) was added at 50 µL/well. The OD₄₅₀ nm values were read by an ELISA plate reader (Multimode Plate Reader, EnSight, purchased from Perkin Elmer).
As to B1, the “EC50 (read off the curve)” value is roughly 0.08 nM.

Consider B2, for which the “EC50 (read off the curve)” value is roughly 0.08 nM.

B3: the “EC50 (read off the curve)” value is roughly 0.08 nM.

B4: the “EC50 (read off the curve)” value was roughly 0.08 nM.

With B5, the “EC50 (read off the curve)” value was roughly 0.08 nM.

Regarding B6, the concentration giving a half-maximal response (EC50 (read off the curve)) is roughly 0.08 nM.

With B7, the “EC50 (read off the curve)” value was roughly 0.08 nM.

The target in the next assay is T2, Cyno MUC17 ECD3577-his (His-tagged cynomolgus monkey MUC17 protein extracellular domain fusion protein) (cynomolgus monkey).
T2 construct: also called monkey MUC17-his protein; monkey MUC17 ECD3577-His
T2 chain: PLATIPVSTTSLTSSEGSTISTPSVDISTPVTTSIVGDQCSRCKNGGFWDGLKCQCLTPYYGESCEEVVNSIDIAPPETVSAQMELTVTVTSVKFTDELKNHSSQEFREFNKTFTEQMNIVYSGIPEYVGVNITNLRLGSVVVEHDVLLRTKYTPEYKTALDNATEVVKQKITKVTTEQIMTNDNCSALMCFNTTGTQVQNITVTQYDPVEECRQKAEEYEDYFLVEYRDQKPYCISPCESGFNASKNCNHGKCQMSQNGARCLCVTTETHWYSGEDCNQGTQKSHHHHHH
Kind of assay: ELISA on coated monkey MUC17 ECD3577-His, OD450. As to the method: To assay the binding activity of the humanized antibodies with the monkey MUC17-his protein, the monkey MUC17-his protein was diluted with PBS to a final concentration of […] and subjected to ELISA assay and data analysis according to the method described in Example 3.3. The humanized antibodies SCR-7724, SCR-7782, SCR-7783, SCR-7784, and SCR-7785 have cross-binding activity with the monkey MUC17 protein, maintaining the binding ability of the recombinant antibody.
For orientation: In an ELISA, binding on a coated surface is turned into a signal by an enzyme label.
B1: the “EC50 (read off the curve)” value was roughly 0.05 nM.

With B2, the “EC50 (read off the curve)” value is roughly 0.05 nM.

Turning to B3, the “EC50 (read off the curve)” value is roughly 0.05 nM.

On to B4, for which the “EC50 (read off the curve)” value is roughly 0.05 nM.

For the molecule B5, the “EC50 (read off the curve)” value was roughly 0.05 nM.

As for B6, the “EC50 (read off the curve)” value is roughly 0.05 nM.

As to B7, the half-maximal effective concentration (EC50 (read off the curve)) was roughly 0.05 nM.

The next assay has as its target T1, Human MUC17 ECD4131-his (His-tagged …). Kind of assay: SPR (Biacore 8K), antibody captured on Protein A. As to the method: The strength of antibody-antigen binding was assayed with a BIAcore 8K instrument using an Protein A capture method. First, Protein A was immobilized onto a CM4 chip (purchased from GE, BR-1005-34) using an amino coupling method. According to the instruction of the Amine Coupling Kit (purchased from GE, BR100633), NHS and EDC were mixed with HBS-EP+ pH 7.4 as a mobile phase to activate the chip for about 600 s; the Protein A was diluted to 50 µg/mL with 10 mM sodium acetate (pH 4.5) and injected for 600 s, and finally, the remaining activated sites were blocked with ethanolamine. Then, the affinity of the antibody for the antigen was assayed using a multi-cycle kinetic method; in each cycle, first, the antibody to be tested was captured using the Protein A chip, and then a single concentration of antigen protein was injected. The association and dissociation processes of the antibody with the antigen protein were recorded, and finally, the chip was regenerated using Glycine pH 1.5, wherein the mobile phase was HBS-EP+ (10 mM HEPES, 150 mM NaCl, 3 mM EDTA, 0.05% surfactant P20), the flow rate was […], the regeneration time was 30 s, and the assay temperature was 25° C. Finally, according to a 1:1 binding model, the data were analyzed, and the antibody-antigen binding kinetics parameters, including the association rate constant Ka, the dissociation rate constant Kd, the equilibrium dissociation constant KD, and the maximum binding signal Rmax, were fitted. The association rate (Ka), dissociation rate (Kd), and binding affinity (KD) of the recombinant antibodies Lab315-huFc, Lab316-huFc, Lab320-huFc, Lab331-huFc, and Lab332-huFc with the human MUC17 protein are shown in Table 5.
After the finally obtained various humanized antibodies were expressed and purified, the affinity of the humanized antibodies for the human MUC17 protein was assayed according to the method in Example 3.6.
On the technique in general: Surface plasmon resonance follows binding to a sensor surface in real time, without labels.
In turn, B8 registered a Kd of 0.134 nM, a koff of 2.58e-05 s⁻¹ and a kon of 192000 M⁻¹ s⁻¹.

As to B9, the Kd is 0.053 nM, the koff was found to be 1.23e-05 s⁻¹ and the kon was determined as 231000 M⁻¹ s⁻¹.

B10 registered a Kd of 0.0587 nM, a koff of 1.32e-05 s⁻¹ and a kon of 224000 M⁻¹ s⁻¹.

The molecule B11 came in with a Kd of 0.049 nM, a koff of 9.72e-06 s⁻¹ and a kon of 199000 M⁻¹ s⁻¹.

Molecule B12 showed a Kd of 1.56 nM, a koff of 0.000455 s⁻¹ and a kon of 291000 M⁻¹ s⁻¹.

B13 showed a Kd of 1.21 nM, a koff of 0.000176 s⁻¹ and a kon of 145000 M⁻¹ s⁻¹.

B14 yielded a Kd of 0.407 nM, a koff of 8.54e-05 s⁻¹ and a kon of 210000 M⁻¹ s⁻¹.

The molecule B15 showed a Kd of 0.394 nM, a koff of 8.28e-05 s⁻¹ and a kon of 210000 M⁻¹ s⁻¹.

In turn, B1 yielded a Kd of 0.0755 nM, a koff of 2.27e-05 s⁻¹ and a kon of 301000 M⁻¹ s⁻¹.

In turn, B2 had a Kd of 0.1 nM, a koff of 3.93e-05 s⁻¹ and a kon of 392000 M⁻¹ s⁻¹.

The molecule B3 came in with a Kd of 0.0831 nM, a koff of 3.05e-05 s⁻¹ and a kon of 367000 M⁻¹ s⁻¹.

With B4, the Kd was 0.073 nM, the koff was 2.69e-05 s⁻¹ and the association rate constant (kon) was determined as 369000 M⁻¹ s⁻¹.

Take B5: binding was put at a Kd of 0.104 nM, the koff was 3.24e-05 s⁻¹ and the kon is 313000 M⁻¹ s⁻¹.

In turn, B6 returned a Kd of 0.0722 nM, a koff of 2.69e-05 s⁻¹ and a kon of 372000 M⁻¹ s⁻¹.

Molecule B7 came in with a Kd of 0.0753 nM, a koff of 2.77e-05 s⁻¹ and a kon of 368000 M⁻¹ s⁻¹.

By EC50 (read off the curve) is commonly meant the concentration giving half of the maximal effect. The term Kd denotes a measure of binding affinity in units of concentration. The koff is a measure of how fast the partners let go of each other. The kon is the second-order rate constant of association.
